About 2,200 (0.71%) of roughly 310,000 compounds showed an effect of 50% or more. The effect is printed as a negative number. This is one part of the list.
Target: human ether-à-go-go-related gene (hERG) potassium channel (human, UniProt Q12809)
Assay: primary screen, population patch clamp on CHO cells stably expressing hERG

Sequence of human ether-à-go-go-related gene (hERG) potassium channel (Q12809 whole entry, looked up): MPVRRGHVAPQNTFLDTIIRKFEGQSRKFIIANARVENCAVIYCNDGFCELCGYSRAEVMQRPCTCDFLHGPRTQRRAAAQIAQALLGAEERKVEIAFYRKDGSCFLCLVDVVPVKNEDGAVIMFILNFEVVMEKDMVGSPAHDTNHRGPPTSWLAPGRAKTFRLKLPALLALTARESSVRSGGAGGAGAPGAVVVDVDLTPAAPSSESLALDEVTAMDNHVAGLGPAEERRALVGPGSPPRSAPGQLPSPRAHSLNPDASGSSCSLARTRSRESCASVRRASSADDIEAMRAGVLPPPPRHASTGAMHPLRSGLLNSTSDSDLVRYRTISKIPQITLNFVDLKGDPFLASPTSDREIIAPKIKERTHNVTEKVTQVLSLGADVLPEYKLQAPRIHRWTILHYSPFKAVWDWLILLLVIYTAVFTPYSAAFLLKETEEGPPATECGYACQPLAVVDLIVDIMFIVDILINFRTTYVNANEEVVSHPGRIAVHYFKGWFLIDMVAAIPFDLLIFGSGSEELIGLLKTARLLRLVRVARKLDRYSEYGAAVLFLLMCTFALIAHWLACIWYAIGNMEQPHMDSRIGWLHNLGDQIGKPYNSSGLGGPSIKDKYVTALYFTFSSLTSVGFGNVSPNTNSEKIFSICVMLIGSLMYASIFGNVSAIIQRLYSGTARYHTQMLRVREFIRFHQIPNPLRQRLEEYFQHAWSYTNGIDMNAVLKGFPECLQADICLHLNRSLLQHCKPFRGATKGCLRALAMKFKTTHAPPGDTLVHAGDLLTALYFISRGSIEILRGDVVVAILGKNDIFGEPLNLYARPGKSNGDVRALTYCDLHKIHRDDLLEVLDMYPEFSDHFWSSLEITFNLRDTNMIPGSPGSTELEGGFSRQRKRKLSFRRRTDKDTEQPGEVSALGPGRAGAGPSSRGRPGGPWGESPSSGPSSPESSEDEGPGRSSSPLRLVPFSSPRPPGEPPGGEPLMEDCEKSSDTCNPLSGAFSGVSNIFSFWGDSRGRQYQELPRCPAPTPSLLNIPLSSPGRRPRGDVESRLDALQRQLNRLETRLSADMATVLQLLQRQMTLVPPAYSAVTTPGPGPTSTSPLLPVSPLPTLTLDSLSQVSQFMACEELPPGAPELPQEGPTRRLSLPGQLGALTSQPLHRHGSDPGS

Point of comparison: `C/C=C(/C)C(=O)O[C@H]1[C@@H](O)c2c(ccc3ccc(=O)oc23)OC1(C)C`, “hERG current change (%, negative = inhibition) at 1uM” value 11.6%. Against it:
- NNC(=O)c1ccc(N2CCCCCC2)c([N+](=O)[O-])c1 — lower, 6.74%
- O=C1NC(=O)N(c2ccccc2)C(=O)/C1=C/c1ccc(Sc2ccccc2)o1 — higher, 17.2%
- Cc1cc(Cl)ccc1OCC(=O)N1CCN(c2ncccn2)CC1 — lower, -8.29%
- NNC(=O)c1cccc(COc2ccc3c(c2)CCC3)c1 — lower, 10.6%
- O=C(O)c1ccccc1Oc1ccc(Oc2ccccc2)cc1 — higher, 14.9%
- Cc1ccc(CC(CC(=O)O)C(=O)NC2CCCCC2)cc1 (stereo not shown) — lower, -7.37%
- CCOC(=O)CN1N=C(/C=C/c2ccc(C)cc2)CCC1=O — higher, 12.2%
- CN(C)CCCNC(=O)c1cc2sc3ccccc3c2s1.Cl — lower, 5.18%
- COc1ccccc1CNC(=O)CSc1ccc(-c2ccncc2)nn1 — lower, 9.96%
- COC(=O)C1C(=O)c2c([nH]c(C(=O)OC3CCCCC3)c2C)CC1C (stereo not shown) — lower, 9.81%
- O=C(C1=C(O)C(=O)N(c2ncccn2)C1c1ccc(Cl)c(Cl)c1)c1ccco1 (stereo not shown) — lower, 9.84%
- c1ccc(CCc2nn3c(Cn4nnc5ccccc54)nnc3s2)cc1 — lower, -14.3%
- O=C(Cn1c(=O)oc2ccccc21)N(Cc1ccccc1)C1CCS(=O)(=O)C1 (stereo not shown) — lower, 5.58%
- O=C(O)c1ccc2c(c1)C(=O)N(c1cc([N+](=O)[O-])ccn1)C2=O — lower, 10.8%
- CCCCNC(=O)c1nc2ncc(Br)cn2n1 — lower, -2.19%
- CCN1CC2([N+](=O)[O-])C=CC(=O)C([N+](=O)[O-])(C1)C2CC(=O)c1ccccc1 (stereo not shown) — the same, 11.6%
- CCCN(C(=O)COC(=O)CC1CCCCC1)c1c(N)n(Cc2ccccc2)c(=O)[nH]c1=O — higher, 13.7%
- S=C(NC1CC1)NC1CCCc2ccccc21 (stereo not shown) — higher, 12.7%
- CCCCn1c(SCC(=O)NCc2ccco2)nc2c(sc3ccccc32)c1=O — lower, -4.7%
- CCOC(=O)c1ccc(NC(=O)Nc2ccc3c(c2)OCCO3)cc1 — lower, 8.05%
- O=C(CS(=O)(=O)c1ccccc1)Nc1ccc(N2CCOCC2)cc1 — lower, 11%
- Cc1ccc(-n2nc(C(=O)O)nc2-c2ccccc2)cc1 — lower, -0.628%
- Cc1ccc(SCCc2cc[n+](CC(=O)c3ccccc3)cc2)cc1 — lower, -46.5%
- COc1cc(C2CC(=O)Oc3c(C(CCN4CCOCC4)c4ccc(N(C)C)cc4)c(OC)cc(OC)c32)cc(OC)c1OC (stereo not shown) — lower, 9.04%
- CN(Cc1ccccc1)S(=O)(=O)c1ccc2c(c1)CCC(=O)N2 — higher, 14.1%
- O=C1CCC(/C=C/c2ccccc2)=NN1Cc1ccccc1 — lower, 10.7%
- COc1ccc(/C(N)=N/OC(=O)c2cccc([N+](=O)[O-])c2)cc1OC — lower, -1.16%
- CN(C)c1c(N)c(=O)oc2ccccc12 — lower, 9.47%
- CC(C)(C)C(=O)N1CCCC1C(=O)O (stereo not shown) — lower, 9.12%
- CCC(=O)Nc1ccc(Oc2ccc3c(c2)C(=O)N(c2ccc(O)cc2)C3=O)cc1 — higher, 13.7%
- CNC(=S)/N=C(/Nc1ccccc1)c1ccccc1 — lower, -2.09%
- COc1ccccc1OCCCCn1c(C(C)O)nc2ccccc21 (stereo not shown) — lower, 10.7%
- CCOc1ccc(NC(=O)N2CCCC2C(=O)NCc2ccco2)cc1 (stereo not shown) — higher, 12.8%
- Cc1cc(OCC(O)CNC(C)c2ccccc2)ccc1C(C)C.Cl (stereo not shown) — lower, 8.02%
- COc1ccc([N+](=O)[O-])cc1NC(=O)C(C)OC(=O)CSC(C)C(=O)Nc1cc(C)on1 (stereo not shown) — lower, 3.66%
- COC(=O)C1CCN(C(=O)COC(=O)c2ccc(OC)c(S(=O)(=O)N3CCCc4ccccc43)c2)CC1 — lower, -4.43%
- Cc1cc(=O)[nH]c(-n2ncc(C#N)c2N)n1 — higher, 22.1%
- CN(c1ccc(C(=O)N2CCN(Cc3ccc4c(c3)OCO4)CC2)cc1)S(=O)(=O)c1ccccc1 — lower, -15.1%
- NC(=O)CC[C@@H]1NC(=O)[C@@H]2CCCN2C(=O)c2cc([N+](=O)[O-])cc(I)c2NCCCC[C@@H](C(=O)NC(CC(=O)O)C(N)=O)NC1=O (stereo partly shown) — lower, 3.24%
- Cc1ccc(NC(=S)NCCO)c(C)c1 — lower, 4.58%
- CNC(=S)N(Cc1ccc(Cl)cc1)Cc1cccs1 — lower, 11.2%
- CC(C)c1ccc(C(CC(=O)O)NC(=O)c2cccs2)cc1 (stereo not shown) — higher, 16.2%

Reference: publication PMC4336329 (PLoS ONE, 2015)
